Source: the supplement of paper PMC3334620
Over roughly 33,000 sequences, “E-score (-0.5 to 0.5)” has its median near -0.011; the highest 2% begin near 0.28. Some of the results follow.

biological target: T1, Gcr1 (UniProt P07261); assay: PBM E-score (8-mer binding enrichment) (E-score (-0.5 to 0.5)); higher = stronger / more preferred TF binding; most listed sequences are background and not binding sites; conditions: protein concentration: 100 nM; construct: GST-full length
T1 sequence: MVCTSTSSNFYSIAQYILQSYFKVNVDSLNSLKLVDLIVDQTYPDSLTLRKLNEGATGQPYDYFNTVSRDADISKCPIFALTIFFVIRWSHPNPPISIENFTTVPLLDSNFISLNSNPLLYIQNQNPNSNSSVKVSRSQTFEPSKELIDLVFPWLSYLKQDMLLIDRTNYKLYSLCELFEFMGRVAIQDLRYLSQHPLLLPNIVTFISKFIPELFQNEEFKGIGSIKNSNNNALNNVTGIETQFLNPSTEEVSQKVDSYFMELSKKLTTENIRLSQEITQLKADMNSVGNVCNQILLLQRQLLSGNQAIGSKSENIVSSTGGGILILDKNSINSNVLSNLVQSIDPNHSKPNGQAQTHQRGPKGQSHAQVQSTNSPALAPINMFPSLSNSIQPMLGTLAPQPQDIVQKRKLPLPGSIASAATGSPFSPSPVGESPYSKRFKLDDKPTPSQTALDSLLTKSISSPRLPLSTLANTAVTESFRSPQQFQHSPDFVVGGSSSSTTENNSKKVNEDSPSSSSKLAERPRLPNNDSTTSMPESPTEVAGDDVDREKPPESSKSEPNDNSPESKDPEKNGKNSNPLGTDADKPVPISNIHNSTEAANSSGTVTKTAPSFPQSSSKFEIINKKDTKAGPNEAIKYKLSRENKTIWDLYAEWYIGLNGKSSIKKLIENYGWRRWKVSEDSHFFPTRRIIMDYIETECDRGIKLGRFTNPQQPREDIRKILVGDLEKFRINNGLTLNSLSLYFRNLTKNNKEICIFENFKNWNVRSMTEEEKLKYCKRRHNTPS
Method in brief: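 PURExpress in vitro transcription/translation supplied GST-tagged yeast transcription factors, either full-length or DNA-binding domain. Applied at about 100-200 nM to universal all-10-mer Agilent arrays double-stranded by primer extension, the bound protein was detected with fluorescent anti-GST. E-scores, modified Wilcoxon-Mann-Whitney statistics, were given by the Universal PBM Analysis Suite to ungapped eight-base words pooled with their reverse complements after masliner normalisation.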

Sequence | PBM E-score
ATTCGGCA | 0.043
CATCAAGC | -0.0889
AGTCCAGC | 0.00398
AATCCTAC | 0.0255
ATTGGGTC | 0.126
GTTGAGTA | -0.0516
CTAGCTAA | -0.124
ACCGCTCG | -0.00838
ATTTCTAA | -0.207
AGCGCGAC | 0.0874
CCCAGAAC | 0.0712
CCATAACA | -0.0834
AGTCTTAA | -0.236
AGTCCCAA | 0.00793
CGGAGTTC | -0.0447
AATTGTGA | 0.0584
CGAGGTTC | 0.0985
AGGTTACC | 0.113
ATGAAACC | 0.164
AACCTTTG | -0.139
GGTTAACC | -0.194
AAGCGTCA | -0.0114
GGCCGCCC | 0.117
CGATTCCA | 0.178
AACATTCC | -0.13

Sequence | PBM E-score
CTAACCCA | -0.0302
CTTTAGGA | 0.249
TGTTGAAA | -0.0142
CGGCCCCC | 0.0724
ATCAGCTC | -0.0564
ATGTAGTA | 0.156
GCACTGAA | -0.00389
TAAGTCTA | -0.0984
ACGGGATC | 0.21
TCCACCCA | 0.0516
GAGAGTCA | -0.128
TGTGAGAA | -0.0342
CACGTAAC | -0.161
GCCGCTAC | 0.118
AGTATGTG | -0.0667
GAACGGCA | -0.106
CAGCACGA | -0.114
GTTAAATA | 0.0652
ACCATCAT | -0.129
ATGAGCTA | -0.0104
AAGCTGTG | 0.0238
GGGATTTA | 0.0417
ATGTACAA | -0.14
ACGGTACC | -0.0315
TAACCAGA | 0.139

Sequence | PBM E-score
ACTGCCAT | 0.0395
CGCTCCTC | -0.226
CTATGCAA | -0.1
CTCCAGTA | 0.214
ACAATATA | -0.0662
CGTACCCC | -0.202
ACAAAGAT | -0.106
AGGCTGTA | -0.114
ATCCTCTC | 0.0674
GGGAGGCA | -0.029
GTCGCAAA | -0.0286
GCACATCC | -0.182
AGTCATAC | -0.047
ACCCTACG | -0.14
ACCGGGAT | 0.191
CGTTCCGA | 0.14
CGACCAGC | -0.218
GAGTCACA | -0.0486
ACATGGAA | 0.128
ACACCGGT | -0.0348
CCACAACA | 0.138
CTAGGCAG | 0.027
AATTCCTA | 0.0723
ACATTATC | 0.0205
AGTGGGGA | 0.0734

Sequence | PBM E-score
AAGCTCTC | -0.203
TTCCCGAA | 0.205
TCCTACGA | -0.122
ATGTCTCA | -0.167
CCCGTATA | 0.116
AAATTGAC | 0.0927
CCTTTTAG | 0.15
ATATATAA | 0.12
ACGCTATA | 0.107
AGTTACTC | -0.119
ATATTTTG | -0.0728
ACTGTGTA | 0.108
CATAGGGA | 0.0429
CCCCCTCA | -0.245
CTCTAAGC | -0.00427
GCTGTGTA | 0.0303
ACAAAGAC | -0.143
ATACAAAA | 0.127
ACACTTTC | 0.101
GCACGTAC | -0.0835
ACTCTGCT | -0.168
CCACACTC | 0.063
ATGCGAGC | 0.173
ACGTGGAT | -0.0577
ACCCCAAC | 0.0095

Sequence | PBM E-score
ACGCAGTG | -0.105
ACCTAGGC | -0.176
CATCAGTC | -0.298
CCGAATAG | 0.0276
ACGGCGCC | 0.312
GGATTGTA | -0.127
CAATGTTC | -0.0163
AGCATCCG | 0.372
ATGCTCTG | 0.121
CCTCTCGA | -0.22
AACGTGGG | -0.197
CATGCACA | -0.13
GCGCATGA | -0.104
ATCGCACA | -0.277
CTACGAAG | 0.0785
GGGACTTA | -0.171
ACCTACGT | -0.112
CAACCCTG | -0.0684
GCGCGGTA | 0.0713
AGGGATTG | 0.0467
GTCAGCCA | -0.113
ACACTACC | -0.139
AGTGCTAA | 0.082
TACCTCCA | -0.101
CGACAGGA | 0.185

Sequence | PBM E-score
AAGCTTAG | -0.0247
ACCGATCG | -0.182
AGTCATAT | -0.0105
CCTGTATA | 0.2
ACATTAAA | 0.00365
CCTATTTC | 0.0629
CGTACTCC | -0.134
GAGACGTA | -0.0782
TCTGAGCA | 0.0835
ACCCTATC | -0.0336
ATTTGGAG | 0.0526
CCACGTGA | -0.0287
ACAGCGAG | -0.112
AAAGTCTC | -0.151
GCAATTGC | -0.0766
TGATTTAA | 0.00884
GGGGCTAA | 0.0181
GGGTGCTA | 0.26
AACCTTAA | -0.0496
CAACAAGC | 0.00715
ATATAGGC | 0.187
ACCGAAAA | 0.18
GCAGCACC | 0.103
AGCGCGTC | 0.0937
ACACTAAA | 0.116

Sequence | PBM E-score
ACTTCCTA | 0.245
CGTTAGAA | -0.155
GCGAACCC | -0.0857
AGAAAACT | -0.0344
ACGTAAAT | 0.0369
AGAGACAC | -0.0221
ACGGACCC | -0.0859
GGCCGCAA | -0.215
CGAACGTA | -0.161
AATGTCGT | 0.216
CTGGGTCC | 0.0719
CCATGTCC | -0.14
CGGTGCTA | 0.208
CATCTAAC | 0.244
CATTGGAG | 0.0154
CAAACGCA | -0.0531
CATATTGA | -0.052
AGCCCGGA | -0.0472
CATCACGA | -0.0802
CTCTGTCC | -0.0795
AATGACAG | -0.154
GACTTGCC | -0.157
ACAAGAGA | -0.0683
ATACATTC | -0.178
CTAGGCAA | 0.00069

Sequence | PBM E-score
CGGGTGCA | 0.0724
GTAACTAA | 0.16
CCCCTGCA | -0.117
GACATCAC | -0.0799
CAGTGGGC | -0.0102
CAATGGCC | -0.192
AATGACTC | -0.0582
AGGGAAAG | -0.15
GAAGATAA | 0.0599
AACTTAAG | 0.0794
CAAGTCAG | -0.108
CGGTGGAA | 0.0286
CTTGGATC | 0.221
ACGCAACT | 0.186
CCCGATCG | -0.0246
ATCTGCGA | 0.0591
GACCGATA | -0.125
GAACTGCC | -0.0585
ATGGAGTC | 0.0937
AGACCAGA | 0.0754
AAGCGCAA | -0.103
GTAGCTAC | 0.184
AGCAGTAG | 0.00486
CCGCCTAG | -0.0452
AATGGTCC | 0.00758

Sequence | PBM E-score
CGCCTGAC | -0.00014
GTCGAGCA | 0.0187
ATTCCCTG | -0.0502
AGGGAGGA | -0.182
ACTGTGGA | 0.113
GATCCGCC | -0.047
GAATATCC | 0.0215
GGATATCC | -0.206
AGACGACT | -0.0708
CGGAACTA | -0.0112
CACATTAG | 0.00352
ATTGCTAA | 0.0586
ATTGTTGG | 0.0636
AGTGGGAA | 0.119
CACTCTGA | -0.0127
CAGTTCGA | -0.0672
GAAGAATC | 0.19
CTGTATCA | 0.00368
GGGTATAA | -0.0225
